The source of these data is PubChem BioAssay AID488969 (Vanderbilt High Throughput Screening Facility, 2010).

Molecules are shown by their SMILES. Whole data set: some 110,000 compounds, median “z-score” near -0.1, cut for the highest 2% near 2. The list shows a part of the results. Activity calls are given as the source filed them.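 How the source made its calls: active means z-score in the third read window above 3 or below -3; inactive means the rest.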

In the assay the target is Metabotropic glutamate receptor 8 (Rattus norvegicus) (UniProt P70579). Put plainly: rat mGluR8 modulators via GIRK flux, primary screen, cell-based, thallium flux, HTS (AID 488969). To be noted: HEK293 rat mGluR8, GIRK (G protein-gated inwardly rectifying potassium channel) thallium flux, FluoZin2; at 10 µM; stronger effect = higher value; submaximal glutamate (EC20) added with thallium.
UniProt P70579, sequence (P70579 whole entry, looked up): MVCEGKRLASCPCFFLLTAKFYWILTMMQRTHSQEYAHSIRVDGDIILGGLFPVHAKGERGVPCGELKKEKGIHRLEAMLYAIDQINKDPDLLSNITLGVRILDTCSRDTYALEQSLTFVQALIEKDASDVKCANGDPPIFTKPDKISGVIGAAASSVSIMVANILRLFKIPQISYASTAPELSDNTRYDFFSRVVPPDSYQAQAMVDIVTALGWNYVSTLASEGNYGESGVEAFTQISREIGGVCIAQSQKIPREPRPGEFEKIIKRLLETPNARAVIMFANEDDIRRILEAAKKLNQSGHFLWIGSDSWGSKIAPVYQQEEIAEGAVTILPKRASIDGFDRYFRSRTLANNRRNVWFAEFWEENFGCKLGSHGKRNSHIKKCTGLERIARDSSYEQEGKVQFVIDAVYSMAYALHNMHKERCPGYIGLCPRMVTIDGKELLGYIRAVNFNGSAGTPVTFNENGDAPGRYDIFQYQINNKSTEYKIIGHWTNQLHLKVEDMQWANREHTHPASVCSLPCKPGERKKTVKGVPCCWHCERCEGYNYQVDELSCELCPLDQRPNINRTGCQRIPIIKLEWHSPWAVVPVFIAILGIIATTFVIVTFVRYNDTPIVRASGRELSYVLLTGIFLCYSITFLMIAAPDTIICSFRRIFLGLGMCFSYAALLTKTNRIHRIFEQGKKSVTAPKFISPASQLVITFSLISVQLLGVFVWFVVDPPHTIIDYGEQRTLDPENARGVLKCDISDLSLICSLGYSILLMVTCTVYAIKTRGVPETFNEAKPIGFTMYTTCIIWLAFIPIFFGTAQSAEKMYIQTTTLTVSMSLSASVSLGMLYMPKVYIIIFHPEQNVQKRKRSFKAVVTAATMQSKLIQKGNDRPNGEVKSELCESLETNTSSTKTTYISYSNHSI
On to `Cn1c(COc2ccc3ccccc3c2)nnc1SCC(=O)OC1CCCCC1`, for which the z-score was -0.0345. The figure for `O=C/C(=C\Nc1ccccn1)c1nc2ccccc2o1` is 0.716.

As to `CC(=C/c1ccco1)/C=N/N1CCN(c2ccccc2)CC1`, the z-score was -0.195. As for `Cc1oc(-c2ccccc2)[n+]([O-])c1C`, the z-score is -0.00439. As for `COCCn1cc(C(=O)N2CCCC(C)C2)c2c3ccccc3n(C)c2c1=O` (stereo not given), the figure is -0.26; as for `COc1cccc(C=NCCNC(=O)c2nonc2N)c1O`, -1.24; as for `CC(C(=O)Nc1ccc(C(=O)O)cc1)N1C(=O)c2ccccc2C1=O` (stereo not given), 0.789. As for `CCc1nc2ccccc2n(CC)c1=O`, the figure is -0.551; as for `CC(/C=N/NC(=O)c1cc(-c2ccc3ccccc3c2)n[nH]1)=C\c1ccco1`, -0.175; as for `Cc1ccccc1N1C(=O)[C@@H]2Cc3ccccc3CN2C1=O`, 0.85. As for `CCOc1ccccc1C1CC(c2ccc(F)cc2)Nc2nc(N)nn21` (stereo not given), the figure is -0.0345; as for `CC(C)(C)n1nnnc1CN1CCN2CCCC2C1` (stereo not given), 0.084. In turn, `COc1ccc(OC)c(N(CC(=O)NC2CC2)S(=O)(=O)c2ccc(C)cc2)c1` had a z-score of 0.0301. The figure for `Cc1cc(C)c2nc(NC(=O)C3CCCO3)sc2c1` (stereo not given) is 0.217; for `O=C(Nc1ccccc1)C1C2CCC3C(CCC21)C3(Cl)Cl` (stereo not given) it is -0.0996. As for `CCn1ccnc1C(O)c1cccc(OC)c1OC` (stereo not given), the figure is -0.235; as for `CCOc1ccc(Cc2nnc(SCC(=O)c3ccc(OC)cc3)o2)cc1`, 0.187; as for `CNC(=O)c1ccsc1NC(=O)c1ccc(Cl)s1`, 1.49.

As for `N=c1c(C(=O)NCc2ccco2)cc2c(=O)n3ccccc3nc2n1CCc1ccccc1`, the z-score is active: 4.11. As for `N#Cc1ccc(-c2ccccc2)nc1Sc1ccc(F)cc1`, the z-score is -0.3. The figure for `O=C(NCCc1ccc(Cl)cc1)C1CCN(S(=O)(=O)c2cccs2)CC1` is -0.0567; for `O=c1cc(-c2ccccc2)n(S(=O)(=O)c2ccccc2)o1` it is 0.355; for `O=C(c1c(F)c(F)c(F)c(F)c1F)N1CCN(c2cccc(C(F)(F)F)c2)CC1` it is 0.255.

In the case of `COCCCNC(=O)CC1Oc2ccccc2NC1=O` (stereo not given), the z-score is -0.27. In turn, `COc1ccc(NC(=O)Cc2c(Sc3ccccc3)c3ccccc3n2C)cc1` yielded a z-score of 1.3. The figure for `O=C(Nc1ccc2ccccc2c1)c1ccc(NS(=O)(=O)c2ccc(Br)s2)cc1` is 0.117; for `COC(=O)C(CC(=O)c1ccc(Cl)cc1)c1ccc(C)cc1` (stereo not given) it is -0.155; for `COc1ccc(C(=O)NC2CCN(C(=S)Nc3cc(C)cc(C)c3)CC2)cc1` it is -0.0457. As for `CCCCn1c(SCC(=O)Nc2cc(C)on2)nnc1-c1ccco1`, the figure is 1.3; as for `CCN(CC)S(=O)(=O)c1cccc(C(=O)N2CC(O)CC2C(=O)OC)c1` (stereo not given), -0.00902. Turning to `CC(C)c1ccc2c(c1)C1(NN=C(c3ccccc3)S1)C(=O)N2` (stereo not given), the z-score is 0.979.

`CCOC(=O)c1c(-c2ccc(C)o2)csc1N` gave a z-score of 0.883.

Take `COc1ccc2[nH]c(=O)c(CN(Cc3ccccc3)Cc3nnnn3CC3CCCO3)cc2c1` (stereo not given): the z-score was -0.572. On to `COc1cc(/C=N/NC(=S)Nc2cccc(C(=O)O)c2)cc(OC)c1OC`, for which the z-score was -0.062.

Take `CC1=C(C(=O)NCc2ccccc2)C(c2ccc(C)o2)n2ncnc2N1` (stereo not given): the z-score is -0.0762.

In the case of `Cc1ccccc1CCNC(=O)C1CCN(S(=O)(=O)c2ccc(-n3cnnn3)cc2)CC1`, the z-score is -0.299. For `Cc1ccc(S(=O)(=O)N2CCC(C(=O)N[C@H](C(=O)NC3CCS(=O)(=O)C3)C(C)C)CC2)cc1` (stereo not given in full), the z-score is -0.265. The figure for `COC(=O)c1cc(C(=O)OC)n(Cc2ccc(F)cc2)n1` is -0.248. Turning to `CC(NC(=O)c1cc(-c2ccc(Br)cc2)on1)c1ccccc1` (stereo not given), the z-score is -0.926.

On to `Nc1nonc1/C(=N/O)N1CCCC1`, for which the z-score was -0.326. As for `COc1ccc(Cl)cc1N(CC(=O)N1CCC(C)CC1)S(C)(=O)=O`, the figure is 0.568; as for `CC1(C)CC(=O)c2cnc(N)nc2C1`, -0.555; as for `O=C(c1ccccc1)c1nn(-c2ccc(Cl)cc2)cc1C(=O)c1cc2ccccc2oc1=O`, -0.071. As for `CCOC(=O)c1c(C)c(C(=O)N2CCN(c3cccc(Cl)c3)CC2)c(C)n1C`, the figure is -0.749; as for `Clc1ccc(-c2cn3c(n2)CCC3)cc1`, -0.273. The figure for `Cn1c(=NC(=O)c2ccco2)sc2cccc(F)c21` is 0.0422; for `CCCCC12CN3CC(C)(CN(C1)C31C(=O)N(C)c3ccc(C)cc31)C2=O` (stereo not given) it is 0.0179. Regarding `COc1c(N2CCN(C(=S)NCc3ccccc3)C(C)C2)c(F)cc2c(=O)c(C(=O)O)cn(C3CC3)c12` (stereo not given), the z-score was -0.51. As for `COc1ccc2[nH]cc(C(=O)CNc3nc(C)cs3)c2c1`, the figure is 0.42; as for `CCCCNC(=O)CC(=O)Nc1ccccc1C(=O)O`, 1.35. The figure for `CN(Cc1ccccc1)C(=O)CCn1c(=O)oc2ccccc21` is 2.02; for `COc1ccc(C(=O)NC(=S)Nc2ccccc2F)cc1` it is 0.595; for `O=C(NC(=S)Nc1ccc(S(=O)(=O)N2CCCCC2)cc1)c1ccc(Cl)cc1` it is -0.168. The figure for `Cc1ccc(C(=O)CC(=O)COc2ccc(Cl)cc2C)cc1` is active: 5.45; for `Cc1ccc(S(=O)(=O)Nc2nc(C)cc(N/N=C/c3ccc(O)cc3)n2)cc1` it is 0.778. As to `CC(=O)N1CCc2c(sc(NC(=O)c3ccc(S(=O)(=O)N(C)C)cc3)c2C#N)C1`, the z-score stood at 0.13. The figure for `COc1cccc(OC)c1C(=O)Nc1ccc(S(=O)(=O)Nc2cc(C)nc(C)n2)cc1` is -1.02; for `Cc1ccc(C2CC(c3cccs3)=NN2C(=O)CSC2=NN3CCCC(=O)N=C3S2)cc1` (stereo not given) it is -0.0424. As to `Cc1nnc(NC(=O)c2ccc(C)c(S(=O)(=O)N3CCOCC3)c2)s1`, the z-score is 0.00698. As for `Cc1ccsc1C(=O)NNC(=O)C1CCCCC1C(=O)O` (stereo not given), the figure is 0.42; as for `Cc1ccc(C)c(OCCn2cc(/C=C(/C#N)C(=O)NCC3CCCO3)c3ccccc32)c1` (stereo not given), 0.112; as for `C=CCSC1=N/C(=C\c2cc(OC)c3c(c2)OCO3)C(=O)S1`, 0.0902. The figure for `CCC(=O)N1c2ccc(S(=O)(=O)N(CCO)Cc3ccccc3)cc2CC1C` (stereo not given) is -0.062. In the case of `CCOCCCN1CN(S(=O)(=O)c2ccc(Cl)cc2)c2nc3ccccc3nc21`, the z-score was -0.388.

As to `CC(=O)OCC1OC(c2ccccc2)C(OC(C)=O)C(OC(C)=O)C1OC(C)=O` (stereo not given), the z-score is -0.205. The figure for `Cc1cc(=O)[nH]c(SCC(=O)c2ccc(C)c(C)c2)n1` is 0.98; for `COC(=O)c1sc2nc(N3CCCCC3)c3c(c2c1N)CC(C)(C)N(C)C3` it is 0.971.

Take `Cn1c(=O)[nH]c(=O)c2c1nc(N1CCN(Cc3ccccc3)CC1)n2CCCc1ccccc1`: the z-score is -0.239. The figure for `CCOc1ccc(Cn2c(O)cc(=O)[nH]c2=O)cc1` is 0.565; for `O=C1CC(c2ccccc2)CC2=C1C(c1ccccn1)Nc1ccccc1N2` (stereo not given) it is 0.618.
